Tests used:
T2 cells = assay: 4-hr cytotoxicity of peptide-elicited CTL lines against peptide-loaded T2 cells; settings: for donors whose peptide-stimulated CTL lines killed CCNE1- and CCNE2-peptide-pulsed T2 cells: PBMCs from 7 HLA-A2 positive normal donors; for elicitation of peptide specific CTL lines: different donors and differing peptide concentrations
Description: CTL cytotoxicity assay. A semiautomated minicytotoxicity assay was used to determine specific lysis as described previously (Molldrem, 2000; Molldrem et al., 1996). Briefly, effector cells were prepared in doubling dilutions from 6×10^3 to 25×10^3 cells/well and were plated in 40 μl, 60-well Terasaki trays (Robbins Scientific, Sunnyvale, Calif., USA) with six replicates per dilution. Target cells (T2 cells, marrow-derived leukemic cells, or BM from a healthy donor) at a concentration of 2×10^6 cells/ml were stained with 10 μg/ml of Calcein-AM (Molecular Probes Inc.) for 60 min at 37° C. After washing three times in CM plus 10% AB, target cells were resuspended at 10^5 cells/ml, and 10^3 target cells in 10 μl medium were added to each well containing effector cells. Wells with target cells alone and medium alone were used for maximum (max) and minimum (min.) fluorescence emission, respectively. After 4 hr incubation at 37° C. in 5% CO2, 5 μl FluoroQuench (One Lambda Inc., Canoga Park, Calif., USA) was added to each well, and the trays were centrifuged for 1 min at 60 g before measurement of fluorescence using an automated CytoFluor II plate reader (PerSeptive Biosystems, Framingham, Mass., USA). The percentage of lysis was calculated as follows: % lysis={1−[(mean experimental mission−mean min.)/(mean max−mean min.)]}×100%.
Induction of Primary CTL responses to peptides. These peptides were next used to stimulate T cells specific for peptide-coated targets. PBMC from a normal healthy donor heterozygous for HL-A2.1 were stimulated with peptide-pulsed T2 cells. The T2 cell line has been used by others as an antigen presenting cell for the generation of peptide-specific CTL. Briefly, T2 cells (which co-express the costimulatory molecule B7.1) were washed 3 times in serum-free RPMI culture media supplemented with penicillin/streptomycin and glutamine (CM) and incubated with peptide at 20 μg/mL for 2 hr in CM. The peptide loaded T2 cells were then irradiated with 7500 cGy, washed once, and suspended with freshly isolated PBMC at a 1:1 ratio in CM supplemented with 10% human serum (HS) (Sigma, St. Louis, Mo.). After 7 days in culture, a second stimulation was performed and the following day, 60 IU/mL of recombinant human interleukin-2 (rhIL2) (Biosource International, Camarillo, Calif.) was added. After 14 days in culture a third stimulation was performed, followed on day 15 by addition of rhIL-2. A fourth stimulation was performed on day 21 followed on day 22 by the addition of rhIL2. After a total of 27 days in culture, the peptide-stimulated T cells were harvested and tested for peptide-specific cytotoxicity toward Calcein AM-labeled T2 cells, leukemia cell lines, and fresh human leukemia cells.
The five MPO peptides discussed above, were used to stimulate T cells specific for peptide-coated targets. PBMC from a normal healthy donor heterozygous for HLA-A2.1 were stimulated with peptide-pulsed T2 cells. The T2 cell line has been used by others as an antigen presenting cell for the generation of peptide-specific CTL. Briefly, T2 cells (which co-express the costimulatory molecule B7.1) were washed 3 times in serum-free RPMI culture media supplemented with penicillin/streptomycin and glutamine (CM) and incubated with peptide at concentrations ranging from 0.2 to 200 μg/mL for 2,hr in CM. […]

[1] = test system: HLA-A2 transfected K562 leukemic cell line; assay: Killing of HLA-A2 transfected K562 by CCNE1 peptide-stimulated CTL lines; settings: not non-transfected K562

Sequence | donors whose peptide-stimulated CTL lines killed CCNE1- and CCNE2-peptide-pulsed T2 cells (T2 cells) | peptide-stimulated CTL lines that killed HLA-A2 transfected K562 [1] | elicitation of peptide specific CTL lines (T2 cells)
ILLDWLLEV [CCNE2144-152] | 4 of 7 | – | –
ILLDWLMEV [CCNE1144-152] | 3 of 7 | one of 4 | –
SLWRRPFNV [MY1] | – | – | No peptide specific CTL lines could be elicited
LLSYFKQPV [MY3] | – | – | No peptide specific CTL lines could be elicited
LIQPFMFRL [MY5] | – | – | No peptide specific CTL lines could be elicited
